Laboratory results taken from the supplement of paper PMC4967469.
IC50 is the fitted dose that halves viability relative to control wells, and lower means more sensitive; fits outside the tested doses are given as limits. AUC sums up the same curve from the lowest dose to the 256-fold higher top dose; it is 1 without any effect and falls as sensitivity rises.

Key:
Paclitaxel = compound: CC(=O)O[C@H]1C(=O)[C@@]2(C)[C@H]([C@H](OC(=O)c3ccccc3)[C@]3(O)C[C@H](OC(=O)[C@H](O)[C@@H](NC(=O)c4ccccc4)c4ccccc4)C(C)=C1C3(C)C)[C@]1(OC(C)=O)CO[C@@H]1C[C@@H]2O [Paclitaxel]; assay: Viability of human cancer cell lines after 72 h of drug (GDSC screen); settings: top dose 0.1024 µM
Protocol: (§1)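 Human cancer cell lines in 384-well plates, medium with 10% serum, drug for 72 h over a 256-fold dose range (nine 2-fold or five 4-fold steps up to the top dose). Adherent lines were fixed and stained with the nucleic acid dye Syto60, suspension lines read with resazurin; signal relative to control wells, capped at 0 and 100%. One two-parameter sigmoid per drug and line, fitted in a mixed model over all curves with the slope shared within a line.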

Nutlin-3a = compound: COc1ccc(C2=N[C@@H](c3ccc(Cl)cc3)[C@@H](c3ccc(Cl)cc3)N2C(=O)N2CCNC(=O)C2)c(OC(C)C)c1 [Nutlin-3a]; assay: as above
Protocol: as §1

Cell Line | AUC (Paclitaxel) | IC50 (Paclitaxel) [µM] | AUC (Nutlin-3a) | IC50 (Nutlin-3a) [µM]
CP67-MEL (melanoma, adherent) | 0.809 | > 0.102 | – | –
KP-N-RT-BM-1 (neuroblastoma, semi-adherent) | 0.848 | > 0.102 | – | –
SUP-HD1 (Hodgkin lymphoma, suspension, top dose 8 µM) | – | – | 0.772 | 2.94
SUP-M2 (anaplastic large cell lymphoma, suspension, top dose 8 µM) | – | – | 0.795 | 2.76
SUP-T1 (T-cell lymphoblastic leukaemia, suspension, top dose 8 µM) | – | – | 0.977 | > 8
SW13 (adrenal gland, adherent, top dose 4 µM) | – | – | 0.987 | > 4
SW48 (large intestine, adherent, top dose 8 µM) | – | – | 0.92 | > 8
SW626 (ovary, adherent, top dose 8 µM) | – | – | 0.984 | > 8
SW684 (fibrosarcoma, adherent, top dose 8 µM) | – | – | 0.981 | > 8
SW756 (cervix, adherent, top dose 8 µM) | – | – | 0.982 | > 8
SW780 (bladder, adherent, top dose 8 µM) | – | – | 0.745 | 2.72
SW900 (lung squamous cell carcinoma, adherent, top dose 4 µM) | – | – | 0.895 | > 4
SW948 (large intestine, adherent, top dose 8 µM) | – | – | 0.977 | > 8
SW954 (urogenital system, adherent, top dose 8 µM) | – | – | 0.78 | 3.33
SW962 (urogenital system, adherent, top dose 8 µM) | – | – | 0.958 | > 8
SW982 (soft tissue, adherent, top dose 8 µM) | – | – | 0.794 | 3.8
SW1271 (small cell lung carcinoma, adherent, top dose 8 µM) | – | – | 0.982 | > 8
SW1417 (large intestine, adherent, top dose 8 µM) | – | – | 0.958 | > 8
SW1573 (lung adenocarcinoma, adherent, top dose 8 µM) | – | – | 0.907 | > 8
SW1710 (bladder, adherent, top dose 8 µM) | – | – | 0.982 | > 8
SW1783 (glioma, adherent, top dose 8 µM) | – | – | 0.991 | > 8
SiHa (cervix, adherent, top dose 8 µM) | – | – | 0.987 | > 8
T47D (breast, adherent, top dose 8 µM) | – | – | 0.937 | > 8
T84 (large intestine, adherent, top dose 8 µM) | – | – | 0.989 | > 8
T98G (glioma, adherent, top dose 8 µM) | – | – | 0.978 | > 8
T-T (oesophagus, adherent, top dose 8 µM) | – | – | 0.985 | > 8
TC-71 (Ewing sarcoma, adherent, top dose 8 µM) | – | – | 0.992 | > 8

Cell Line | AUC (Paclitaxel) | IC50 (Paclitaxel) [µM] | AUC (Nutlin-3a) | IC50 (Nutlin-3a) [µM]
TC-YIK (cervix, suspension, top dose 8 µM) | – | – | 0.991 | > 8
TCCSUP (bladder, adherent, top dose 8 µM) | – | – | 0.971 | > 8
TE-1 (oesophagus, adherent, top dose 8 µM) | – | – | 0.982 | > 8
TE-4 (oesophagus, adherent, top dose 8 µM) | – | – | 0.986 | > 8
TE-5 (oesophagus, adherent, top dose 8 µM) | – | – | 0.972 | > 8
TE-6 (oesophagus, adherent, top dose 8 µM) | – | – | 0.973 | > 8
TE-8 (oesophagus, adherent, top dose 8 µM) | – | – | 0.979 | > 8
TE-9 (oesophagus, adherent, top dose 8 µM) | – | – | 0.98 | > 8
TE-10 (oesophagus, adherent, top dose 8 µM) | – | – | 0.984 | > 8
TE-11 (oesophagus, adherent, top dose 8 µM) | – | – | 0.962 | > 8
TE-12 (oesophagus, suspension, top dose 8 µM) | – | – | 0.982 | > 8
TE-15 (oesophagus, suspension, top dose 8 µM) | – | – | 0.978 | > 8
TGBC1TKB (biliary tract, adherent, top dose 8 µM) | – | – | 0.986 | > 8
TGBC11TKB (stomach, adherent, top dose 8 µM) | – | – | 0.992 | > 8
TGW (neuroblastoma, adherent, top dose 8 µM) | – | – | 0.983 | > 8
THP-1 (acute myeloid leukaemia, suspension, top dose 8 µM) | – | – | 0.991 | > 8
TK10 (kidney, adherent, top dose 8 µM) | – | – | 0.967 | > 8
TK (B-cell lymphoma, suspension, top dose 8 µM) | – | – | 0.99 | > 8
TMK-1 (stomach, adherent, top dose 8 µM) | – | – | 0.986 | > 8
TOV-21G (ovary, adherent, top dose 8 µM) | – | – | 0.719 | 2.22
TOV-112D (ovary, adherent, top dose 8 µM) | – | – | 0.964 | > 8
TT2609-C02 (thyroid, adherent, top dose 8 µM) | – | – | 0.969 | > 8
TT (thyroid, adherent, top dose 4 µM) | – | – | 0.909 | > 4
TUR (B-cell lymphoma, suspension, top dose 8 µM) | – | – | 0.983 | > 8
TYK-nu (ovary, adherent, top dose 8 µM) | – | – | 0.975 | > 8
U031 (kidney, adherent, top dose 4 µM) | – | – | 0.96 | > 4
U-118-MG (glioma, adherent, top dose 8 µM) | – | – | 0.98 | > 8

Cell Line | AUC (Paclitaxel) | IC50 (Paclitaxel) [µM] | AUC (Nutlin-3a) | IC50 (Nutlin-3a) [µM]
U-266 (myeloma, semi-adherent, top dose 8 µM) | – | – | 0.962 | > 8
U-698-M (B-cell leukaemia, suspension, top dose 8 µM) | – | – | 0.962 | > 8
UACC-62 (melanoma, adherent, top dose 8 µM) | – | – | 0.899 | > 8
UACC-257 (melanoma, adherent, top dose 8 µM) | – | – | 0.879 | > 8
UACC-893 (breast, adherent, top dose 4 µM) | – | – | 0.968 | > 4
UWB1.289 (ovary, adherent, top dose 8 µM) | – | – | 0.975 | > 8
VA-ES-BJ (soft tissue, adherent, top dose 8 µM) | – | – | 0.748 | 2.7
VAL (B-cell lymphoma, suspension, top dose 8 µM) | – | – | 0.843 | 5.69
VCaP (prostate, adherent, top dose 8 µM) | – | – | 0.985 | > 8
VM-CUB-1 (bladder, adherent, top dose 4 µM) | – | – | 0.938 | > 4
VMRC-LCD (lung adenocarcinoma, adherent, top dose 8 µM) | – | – | 0.993 | > 8
VMRC-RCZ (kidney, adherent, top dose 8 µM) | – | – | 0.977 | > 8
WIL2-NS (lymphoid neoplasm, suspension, top dose 8 µM) | – | – | 0.984 | > 8
WM35 (melanoma, adherent, top dose 8 µM) | – | – | 0.742 | 2.49
WM793B (melanoma, adherent, top dose 8 µM) | – | – | 0.807 | 4.64
WM1552C (melanoma, adherent, top dose 8 µM) | – | – | 0.934 | > 8
WM-115 (melanoma, adherent, top dose 8 µM) | – | – | 0.813 | 5.58
WSU-DLCL2 (B-cell lymphoma, suspension, top dose 8 µM) | – | – | 0.99 | > 8
WSU-NHL (lymphoid neoplasm, suspension, top dose 8 µM) | – | – | 0.96 | > 8
YAPC (pancreas, adherent, top dose 8 µM) | – | – | 0.982 | > 8
YH-13 (glioma, adherent, top dose 8 µM) | – | – | 0.971 | > 8
YKG-1 (glioma, adherent, top dose 8 µM) | – | – | 0.97 | > 8
YT (lymphoid neoplasm, suspension, top dose 8 µM) | – | – | 0.866 | 5.42
ZR-75-30 (breast, adherent, top dose 8 µM) | – | – | 0.977 | > 8
huH-1 (liver, adherent, top dose 8 µM) | – | – | 0.977 | > 8
no-11 (glioma, adherent, top dose 8 µM) | – | – | 0.979 | > 8
